{"source": "the supplement of paper PMC8728848", "test_in_all_cases": "glycan array binding signal (z-score within array); higher = stronger binding", "details_in_all_cases": "glycan notation: IUPAC condensed, linker removed", "key": {"Fuc(b1-3)GlcNAc": {"test_system": "Fuc(b1-3)GlcNAc", "summary_of_the_method": "(§1)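 The binding signal is a Z-score computed within each array. Data were drawn from 3228 arrays in the Consortium for Functional Glycomics database, restricted to those with a known protein sequence. Scores were averaged over arrays of the same protein sequence at different concentrations or buffers, and over linkers, and negative values can be taken as non-binding.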"}, "Gal(a1-3)Gal(b1-4)GlcNAc": {"test_system": "Gal(a1-3)Gal(b1-4)GlcNAc", "summary_of_the_method": "as §1"}, "[1]": {"test_system": "Gal(a1-3)Gal(b1-4)GlcNAc(b1-3)GalNAc", "summary_of_the_method": "as §1"}, "Gal(a1-2)Gal": {"test_system": "Gal(a1-2)Gal", "summary_of_the_method": "as §1"}, "[2]": {"test_system": "Gal(a1-3)Gal(b1-3)GlcNAc(b1-2)Man(a1-3)[Gal(a1-3)Gal(b1-3)GlcNAc(b1-2)Man(a1-6)]Man(b1-4)GlcNAc(b1-4)GlcNAc", "summary_of_the_method": "as §1"}, "[3]": {"test_system": "Gal(a1-3)Gal(b1-3)GlcNAc(b1-6)GalNAc", "summary_of_the_method": "as §1"}, "[4]": {"test_system": "Gal(a1-3)Gal(b1-4)[Fuc(a1-3)]GlcNAc(b1-2)Man(a1-3)[Gal(a1-3)Gal(b1-4)[Fuc(a1-3)]GlcNAc(b1-2)Man(a1-6)]Man(b1-4)GlcNAc(b1-4)GlcNAc", "summary_of_the_method": "as §1"}, "[5]": {"test_system": "Gal(a1-3)Gal(b1-3)[Fuc(a1-4)]GlcNAc(b1-2)Man(a1-3)[Gal(a1-3)Gal(b1-3)[Fuc(a1-4)]GlcNAc(b1-2)Man(a1-6)]Man(b1-4)GlcNAc(b1-4)GlcNAc", "summary_of_the_method": "as §1"}, "[6]": {"test_system": "Gal(a1-3)Gal(b1-3)GlcNAc(b1-2)Man", "summary_of_the_method": "as §1"}, "Gal(a1-3)Gal(b1-4)Glc": {"test_system": "Gal(a1-3)Gal(b1-4)Glc", "summary_of_the_method": "as §1"}}, "note": "This excerpt belongs to a sample that is enriched for the strongest signals.", "data": [{"substance": "Galectin-8 C-terminal CRD (Homo sapiens) (chain not printed)", "values": [{"measurement": "glycan array binding signal (z-score)", "setting": "Fuc(b1-3)GlcNAc", "result": -0.269}, {"measurement": "glycan array binding signal (z-score)", "setting": "Gal(a1-3)Gal(b1-4)GlcNAc", "result": -0.225}]}, {"substance": "Thrombomodulin Extracellular (Homo sapiens) (chain not printed)", "values": [{"measurement": "glycan array binding signal (z-score)", "setting": "Gal(a1-3)Gal(b1-4)GlcNAc", "result": -0.12}]}, {"substance": "M-Ficolin Y271F (Homo sapiens) (chain not printed)", "values": [{"measurement": "glycan array binding signal (z-score)", "setting": "[1]", "result": -0.186}, {"measurement": "glycan array binding signal (z-score)", "setting": "Gal(a1-3)Gal(b1-4)GlcNAc", "result": -0.326}]}, {"substance": "L-Ficolin (Homo sapiens) (chain not printed)", "values": [{"measurement": "glycan array binding signal (z-score)", "setting": "Gal(a1-2)Gal", "result": -0.381}, {"measurement": "glycan array binding signal (z-score)", "setting": "Gal(a1-3)Gal(b1-4)GlcNAc", "result": 0.029}]}, {"substance": "Meso764 (Homo sapiens) (chain not printed)", "values": [{"measurement": "glycan array binding signal (z-score)", "setting": "Fuc(b1-3)GlcNAc", "result": 0.208}, {"measurement": "glycan array binding signal (z-score)", "setting": "[2]", "result": 1.74}, {"measurement": "glycan array binding signal (z-score)", "setting": "[3]", "result": -0.624}, {"measurement": "glycan array binding signal (z-score)", "setting": "[1]", "result": 1.15}]}, {"substance": "NCAM1 (Homo sapiens) (chain not printed)", "values": [{"measurement": "glycan array binding signal (z-score)", "setting": "[1]", "result": -0.112}, {"measurement": "glycan array binding signal (z-score)", "setting": "[4]", "result": 1.65}]}, {"substance": "H-Ficolin (Homo sapiens) (chain not printed)", "values": [{"measurement": "glycan array binding signal (z-score)", "setting": "[4]", "result": -0.27}]}, {"substance": "MBP (Homo sapiens) (chain not printed)", "values": [{"measurement": "glycan array binding signal (z-score)", "setting": "[5]", "result": 0.205}]}, {"substance": "Gal 8-short (Homo sapiens) (chain not printed)", "values": [{"measurement": "glycan array binding signal (z-score)", "setting": "Fuc(b1-3)GlcNAc", "result": -0.783}]}, {"substance": "CLEC-2 (Homo sapiens) (chain not printed)", "values": [{"measurement": "glycan array binding signal (z-score)", "setting": "Gal(a1-2)Gal", "result": -0.051}]}, {"substance": "FGF2 (chain not printed)", "values": [{"measurement": "glycan array binding signal (z-score)", "setting": "[6]", "result": -0.644}]}, {"substance": "Siglec-2 (Homo sapiens) (chain not printed)", "values": [{"measurement": "glycan array binding signal (z-score)", "setting": "Gal(a1-3)Gal(b1-4)Glc", "result": -0.191}]}, {"substance": "M-Ficolin A256V (Homo sapiens) (chain not printed)", "values": [{"measurement": "glycan array binding signal (z-score)", "setting": "[1]", "result": -0.153}, {"measurement": "glycan array binding signal (z-score)", "setting": "[4]", "result": -0.156}]}]}
